Measurements reported in the BET-seq Pho4 binding data (Le et al. 2018).
The other results are listed elsewhere or left out. Values were computed here from the reads of four pooled replicates and scatter widely.

Biological target: T1, Pho4 (S. cerevisiae) (UniProt P07270)
T1 sequence: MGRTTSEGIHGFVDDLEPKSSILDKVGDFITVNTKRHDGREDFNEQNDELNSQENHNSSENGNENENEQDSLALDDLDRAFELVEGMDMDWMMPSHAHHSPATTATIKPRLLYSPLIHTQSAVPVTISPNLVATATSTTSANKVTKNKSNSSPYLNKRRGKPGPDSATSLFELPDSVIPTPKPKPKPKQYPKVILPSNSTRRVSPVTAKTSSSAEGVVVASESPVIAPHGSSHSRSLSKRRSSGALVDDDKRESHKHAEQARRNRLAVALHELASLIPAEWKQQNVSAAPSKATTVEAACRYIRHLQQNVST
Assay: relative binding free energy (BET-seq); higher = weaker binding
Conditions: reference: library average

Sequence | relative binding free energy [kcal/mol]
TTGATCACGTGATTTT | 0.33
AAACTCACGTGGTGTT | 0.13
TTAGTCACGTGATAGC | 0.18
TTGGACACGTGGTAAA | -0.03
TAGCGCACGTGCGGGG | -0.12
TTTTCCACGTGGAATG | 0.08
CTGTTCACGTGCAGGG | 0.21
GTGTTCACGTGAGGGA | 0.39
GAGTACACGTGTGGCT | 0.09
AAAGTCACGTGGAGTT | 0.26
GATGACACGTGCTGTT | 0.01
TATGGCACGTGGATAA | 0.02
AAAGACACGTGTGTAG | 0.17
ATATACACGTGGATGT | -0.02
TTAAGCACGTGGGTCT | -0.17
TTTGACACGTGGGGCA | -0.17
TCGTTCACGTGTTCAT | 0.29
TGTCACACGTGGAAGG | 0
TAATGCACGTGTACGT | -0.07
CAAATCACGTGGGGGT | -0.04
GGGATCACGTGGGCGC | 0.22
TCATTCACGTGATTAT | 0.26
TTGTGCACGTGGTTTG | -0.01
GCTATCACGTGGGGAG | -0.09
CTTTGCACGTGGGAGA | 0.03

Sequence | relative binding free energy [kcal/mol]
TATTTCACGTGAGAGG | 0.41
AGTGGCACGTGGGGCG | -0.22
TAGGGCACGTGAGTTA | 0.13
CGTATCACGTGGAATT | 0.25
AGGGACACGTGTGTTT | 0.18
GGATTCACGTGGGTAC | 0.22
CTTAACACGTGTATGT | 0
AGGAACACGTGCTGTG | 0.06
GCATTCACGTGGTTGA | 0.29
TAACTCACGTGTATGG | 0.16
AAGTGCACGTGATGTT | 0.04
CTCTGCACGTGTTGGT | -0.09
GTATACACGTGTGGGA | 0.02
TTGTTCACGTGTGAAG | 0.27
TGGGCCACGTGGGAAA | -0.12
CGGGTCACGTGTGGAT | 0.27
GTACCCACGTGGGTGT | -0.09
ACTGCCACGTGGTGGG | -0.18
AATTTCACGTGGAGTG | 0.16
TAAGGCACGTGGCGGC | -0.23
CAGCTCACGTGGTGGG | 0.11
GTTCTCACGTGTCTTT | 0.28
TTGACCACGTGTGCGT | -0.11
GTTGGCACGTGATATA | -0.04
GTCGTCACGTGGCAGT | 0.05

Sequence | relative binding free energy [kcal/mol]
ATGAGCACGTGCAGGT | -0.19
AGTTGCACGTGGGTCC | -0.03
GGTGTCACGTGCGGGC | 0.02
TTCTGCACGTGGGATA | -0.15
GTGGGCACGTGTGTGT | -0.06
TGATGCACGTGTTCCA | 0.24
GTATTCACGTGGGGGC | 0.26
TTGTGCACGTGTGAGA | 0.17
ATATGCACGTGGTATA | -0.18
TCAGCCACGTGGGTGT | -0.21
TGCGTCACGTGTTCAG | 0.14
CGTTTCACGTGTGTAC | 0.43
TGGTACACGTGCGTGA | -0.03
TTTGTCACGTGGTTGG | 0.07
TGAGGCACGTGGAAGC | -0.09
CGGGTCACGTGGGATG | 0.07
ATATACACGTGCTGGT | -0.13
CGAGTCACGTGAGTAG | 0.27
TTATGCACGTGTTCAT | -0.24
GGATTCACGTGGATTA | 0.21
CGTTTCACGTGATGGG | 0.28
TCCAGCACGTGGTTGG | -0.03
GGTTTCACGTGATGTT | 0.31
TGAGACACGTGTGGAT | 0.12
AAAAGCACGTGGTGGA | -0.08

Sequence | relative binding free energy [kcal/mol]
TTGAACACGTGTTAGT | 0.01
AAGAACACGTGTTGGT | 0.18
GTGGGCACGTGTAACG | -0.02
AGCTTCACGTGGTGAT | 0.12
TATCGCACGTGATATG | 0.13
ATTGACACGTGCTGTT | -0.16
TATTACACGTGTATCT | 0.05
TGATGCACGTGCGGCG | -0.16
GTTTTCACGTGGGGTC | 0.19
TAGAACACGTGTATTG | 0
TAGCGCACGTGGGGGC | -0.22
GATTGCACGTGTCGTT | -0.11
ATGCGCACGTGTGGGA | 0
AGTTACACGTGTAATT | 0.24
ATATTCACGTGTAAGG | 0.25
GATGGCACGTGCTAGG | -0.11
TGTGTCACGTGGGCGA | -0.02
TACATCACGTGTTAGT | 0.18
GTTATCACGTGTTTTT | 0.15
TGTAACACGTGTGATA | 0.04
AGGAACACGTGTGGGA | 0.02
TTGTTCACGTGAGGAG | 0.31
TTTCGCACGTGTATGT | 0.02
TATGTCACGTGGGTTT | -0.01
GGGACCACGTGGTTGG | -0.17

Sequence | relative binding free energy [kcal/mol]
GGGTTCACGTGAGTAT | 0.39
AAAAGCACGTGGGATG | -0.07
ATTTACACGTGTGGAC | 0.3
GGTTTCACGTGGGTAC | 0.18
CATGTCACGTGTGTGT | 0.14
GGCTTCACGTGGTATA | 0.29
TATGTCACGTGGCAAT | 0.24
AGGTCCACGTGAGTGT | 0.13
GAGAACACGTGCTGTG | 0.1
TATTGCACGTGTTCTG | -0.14
GGTAGCACGTGATGTT | 0.11
TTGTACACGTGTTAGC | 0.06
TAGTTCACGTGATGGT | 0.39
GAGGGCACGTGATGGC | 0.16
TAAATCACGTGGGGTT | 0.07
ATGGTCACGTGACTGG | 0.17
GGCGGCACGTGGGAGT | -0.16
GATGACACGTGAGGGA | 0.31
AGTGACACGTGGGATT | 0
TATATCACGTGAGTAT | 0.25
ATGGGCACGTGGCGAT | -0.26
TCGGCCACGTGGGGGA | -0.17
GTGTACACGTGGTTAA | -0.03
GAAGTCACGTGAGGGA | 0.29
TGATTCACGTGTGCGA | 0.27

Sequence | relative binding free energy [kcal/mol]
TCTCGCACGTGTAGGG | -0.03
ATCGCCACGTGGGTGT | -0.29
GTAGTCACGTGTAGAT | 0.28
GGGTGCACGTGTGGGC | 0.11
ATGTGCACGTGAGTTT | 0.18
AGTATCACGTGTGATT | 0.21
GGAGTCACGTGTAGTT | 0.25
ATGTACACGTGGGAAG | 0.01
TTGTGCACGTGAGGAA | 0.19
TGATGCACGTGTAGTA | 0.07
TTGTGCACGTGAGCTT | 0.19
TATTGCACGTGGTGAT | -0.03
GTGCTCACGTGGTTTA | 0.17
GGCGTCACGTGCGTGT | -0.02
TGTTACACGTGCAAGT | 0.06
GTTGGCACGTGCGGGC | 0.01
AGGAGCACGTGTCGTT | -0.07
TATGCCACGTGTGAGT | 0.04
CGTAGCACGTGTGGGA | -0.1
AGTTACACGTGGTGTA | -0.04
TGAGACACGTGTGGTT | -0.03
